Experimental data taken from the supplement of paper PMC7125110.
± gives the standard error. Variants at the floor of the assay are shown more often than the library holds them.

B1: glmS ribozyme (parent)
chain: AUAAAAGCGCCAGAACUACAGAAAUGUAGUUGACGAGGAGGAGGUUUAUCGAAUUUUCGGCGGAUGCCUCCAAA

Variants of: B1
Experiment: self-cleavage kobs at 2500 uM GlcN6P; higher = faster cleavage; RNA array
Conditions: with glucosamine-6-phosphate
Procedure, shortened: (§1)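 Weighted Michaelis–Menten fits across concentrations supplied kcat and KM, based on kobs from one- or two-exponential decay fits to normalised per-tile medians. The data came from barcoded ribozyme variants transcribed in situ by E. coli RNA polymerase on sequenced MiSeq chips and tracked at 37 °C by a hybridised Cy3 probe. Glucosamine-6-phosphate (40 μM to 10 mM) in HEPES/KCl/Mg(OAc)2 buffer was flowed in.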

Going from G38U U55A G62A U69G to A36U U57A C68U, the “self-cleavage kobs at 2500 uM GlcN6P” value falls from 0.0012 ± 0.00058 s⁻¹ to < 1e-05 s⁻¹.

C34U U45A C67U and G38C G43C U56G C67A U69A cannot be ordered by “self-cleavage kobs at 2500 uM GlcN6P” value: < 1e-05 s⁻¹ for the first, < 1e-05 s⁻¹ for the second.

G32U C34A G41A G60U C70G and G38C G44C cannot be ordered by “self-cleavage kobs at 2500 uM GlcN6P” value: < 1e-05 s⁻¹ for the first, < 1e-05 s⁻¹ for the second.

G37C A42C U69A and A39C U55C G62A C70U cannot be ordered by “self-cleavage kobs at 2500 uM GlcN6P” value: < 1e-05 s⁻¹ for the first, < 1e-05 s⁻¹ for the second.

First: G37A C58A U65A C67U
Second: U46C A48C
The “self-cleavage kobs at 2500 uM GlcN6P” value of the first is lower: < 1e-05 s⁻¹ for the first, 8.54e-05 ± 2.8e-05 s⁻¹ for the second.

First: U56C A64G
Second: G38U G43A G44A
The “self-cleavage kobs at 2500 uM GlcN6P” value of the first is higher: 8.52e-05 ± 2.8e-05 s⁻¹ for the first, < 1e-05 s⁻¹ for the second.

First: U45G A48U U55C
Second: U45C G51C
The “self-cleavage kobs at 2500 uM GlcN6P” value of the first is higher: 8.04e-05 ± 2.8e-05 s⁻¹ for the first, < 1e-05 s⁻¹ for the second.

G40U G44A U55C C67U and G32U C34U A42G C61A cannot be ordered by “self-cleavage kobs at 2500 uM GlcN6P” value: < 1e-05 s⁻¹ for the first, < 1e-05 s⁻¹ for the second.

G44U U57A A64C and A39G G40A G63C cannot be ordered by “self-cleavage kobs at 2500 uM GlcN6P” value: < 1e-05 s⁻¹ for the first, < 1e-05 s⁻¹ for the second.

G37U U46G A52U U57A and G41U U47G U49A G66C C71U cannot be ordered by “self-cleavage kobs at 2500 uM GlcN6P” value: < 1e-05 s⁻¹ for the first, < 1e-05 s⁻¹ for the second.

G35C G40C C70G and G38U A39U G60U cannot be ordered by “self-cleavage kobs at 2500 uM GlcN6P” value: < 1e-05 s⁻¹ for the first, < 1e-05 s⁻¹ for the second.

G32C G38U C58G and A42U U55A G62A cannot be ordered by “self-cleavage kobs at 2500 uM GlcN6P” value: < 1e-05 s⁻¹ for the first, < 1e-05 s⁻¹ for the second.

U54G G63U and G32C U46C U56G G62U cannot be ordered by “self-cleavage kobs at 2500 uM GlcN6P” value: < 1e-05 s⁻¹ for the first, < 1e-05 s⁻¹ for the second.

A36G G40C G60C and A39G U49A U55C G66U cannot be ordered by “self-cleavage kobs at 2500 uM GlcN6P” value: < 1e-05 s⁻¹ for the first, < 1e-05 s⁻¹ for the second.

G35U U57G C70U and G51C G62U C71U cannot be ordered by “self-cleavage kobs at 2500 uM GlcN6P” value: < 1e-05 s⁻¹ for the first, < 1e-05 s⁻¹ for the second.

G38C G51A U57C and A33C A39G U45A A52G cannot be ordered by “self-cleavage kobs at 2500 uM GlcN6P” value: < 1e-05 s⁻¹ for the first, < 1e-05 s⁻¹ for the second.

C34U A42U U49G U54A U56C G63U and U56G G63C C68U cannot be ordered by “self-cleavage kobs at 2500 uM GlcN6P” value: < 1e-05 s⁻¹ for the first, < 1e-05 s⁻¹ for the second.

A33G A36U U65G and C34G G62U C67G cannot be ordered by “self-cleavage kobs at 2500 uM GlcN6P” value: < 1e-05 s⁻¹ for the first, < 1e-05 s⁻¹ for the second.

Going from G44U U56C U57A to G40U G41A C67A C70U, the “self-cleavage kobs at 2500 uM GlcN6P” value rises from < 1e-05 s⁻¹ to 0.000143 ± 3.7e-05 s⁻¹.

G37A G44C G63C and C34U G37A A39C cannot be ordered by “self-cleavage kobs at 2500 uM GlcN6P” value: < 1e-05 s⁻¹ for the first, < 1e-05 s⁻¹ for the second.

Compared with U57A A64U C67U U69G, A33G C50U U54A is lower in “self-cleavage kobs at 2500 uM GlcN6P” value: 8.87e-05 ± 2.4e-05 s⁻¹ for the first, < 1e-05 s⁻¹ for the second.

U47A C50A G59U G66C and A39G A42G G51A C70U C71U cannot be ordered by “self-cleavage kobs at 2500 uM GlcN6P” value: < 1e-05 s⁻¹ for the first, < 1e-05 s⁻¹ for the second.

G51C G66A and A33U A39U C58A cannot be ordered by “self-cleavage kobs at 2500 uM GlcN6P” value: < 1e-05 s⁻¹ for the first, < 1e-05 s⁻¹ for the second.

C34U U56A C61U and A33C A42G U49A cannot be ordered by “self-cleavage kobs at 2500 uM GlcN6P” value: < 1e-05 s⁻¹ for the first, < 1e-05 s⁻¹ for the second.

U45C U57C C68G and A36U G51C C70G cannot be ordered by “self-cleavage kobs at 2500 uM GlcN6P” value: < 1e-05 s⁻¹ for the first, < 1e-05 s⁻¹ for the second.

C50U U54G U55C U57C and A36C G43C C50G C68A cannot be ordered by “self-cleavage kobs at 2500 uM GlcN6P” value: < 1e-05 s⁻¹ for the first, < 1e-05 s⁻¹ for the second.

A36G U45G C67A and A36G A53C U54G C71U cannot be ordered by “self-cleavage kobs at 2500 uM GlcN6P” value: < 1e-05 s⁻¹ for the first, < 1e-05 s⁻¹ for the second.

A33C G43U C71U and A48G A52G A53G G59U cannot be ordered by “self-cleavage kobs at 2500 uM GlcN6P” value: < 1e-05 s⁻¹ for the first, < 1e-05 s⁻¹ for the second.

A36C G40A G43A C50G U69A and A36G G41U U49A G51U A64G cannot be ordered by “self-cleavage kobs at 2500 uM GlcN6P” value: < 1e-05 s⁻¹ for the first, < 1e-05 s⁻¹ for the second.

G35A A53U C58U and A39C G59A G63U cannot be ordered by “self-cleavage kobs at 2500 uM GlcN6P” value: < 1e-05 s⁻¹ for the first, < 1e-05 s⁻¹ for the second.

G32C U46C C50U U65C and G51A G62C U65C cannot be ordered by “self-cleavage kobs at 2500 uM GlcN6P” value: < 1e-05 s⁻¹ for the first, < 1e-05 s⁻¹ for the second.

G35C G41U U45G A64C C70G and A33U G41U G60U cannot be ordered by “self-cleavage kobs at 2500 uM GlcN6P” value: < 1e-05 s⁻¹ for the first, < 1e-05 s⁻¹ for the second.

Going from U45C G66U C70G to G32C G37U A39U C58G G59C C61U C67G C70G, the “self-cleavage kobs at 2500 uM GlcN6P” value falls from 7.12e-05 ± 3.1e-05 s⁻¹ to < 1e-05 s⁻¹.

G43C A64U C68A C71G and C34U U55C C61G cannot be ordered by “self-cleavage kobs at 2500 uM GlcN6P” value: < 1e-05 s⁻¹ for the first, < 1e-05 s⁻¹ for the second.

G51U U57A and A39C U49G C68G cannot be ordered by “self-cleavage kobs at 2500 uM GlcN6P” value: < 1e-05 s⁻¹ for the first, < 1e-05 s⁻¹ for the second.

G32U A36C C67G and G37C G43U U49A A52U C70U cannot be ordered by “self-cleavage kobs at 2500 uM GlcN6P” value: < 1e-05 s⁻¹ for the first, < 1e-05 s⁻¹ for the second.

First: U47A A53U U65A
Second: C34G A53U G59A C70U
The “self-cleavage kobs at 2500 uM GlcN6P” value of the first is higher: 0.00126 ± 0.00036 s⁻¹ for the first, < 1e-05 s⁻¹ for the second.

A36U G44C U46G and A48G U49G G63C U65C cannot be ordered by “self-cleavage kobs at 2500 uM GlcN6P” value: < 1e-05 s⁻¹ for the first, < 1e-05 s⁻¹ for the second.

U49A G60A and G37U G44C C68G cannot be ordered by “self-cleavage kobs at 2500 uM GlcN6P” value: < 1e-05 s⁻¹ for the first, < 1e-05 s⁻¹ for the second.

G38U G51U U55G U65G and G37C U54G G63C cannot be ordered by “self-cleavage kobs at 2500 uM GlcN6P” value: < 1e-05 s⁻¹ for the first, < 1e-05 s⁻¹ for the second.

Variants of: B1
Experiment: self-cleavage kobs at 10000 uM GlcN6P; higher = faster cleavage; RNA array
Conditions: with glucosamine-6-phosphate
Procedure, shortened: as §1

First: G38C G44C
Second: U46C A48C
The “self-cleavage kobs at 10000 uM GlcN6P” value of the first is lower: < 1e-05 s⁻¹ for the first, 0.000136 ± 2.8e-05 s⁻¹ for the second.

First: U56C A64G
Second: G38C G51A U57C
The “self-cleavage kobs at 10000 uM GlcN6P” value of the first is higher: 0.000131 ± 2e-05 s⁻¹ for the first, < 1e-05 s⁻¹ for the second.

G51C G66A and A36G G41U U49A G51U A64G cannot be ordered by “self-cleavage kobs at 10000 uM GlcN6P” value: < 1e-05 s⁻¹ for the first, < 1e-05 s⁻¹ for the second.

G51A G62C U65C and G51U U57A cannot be ordered by “self-cleavage kobs at 10000 uM GlcN6P” value: < 1e-05 s⁻¹ for the first, < 1e-05 s⁻¹ for the second.

G37C G43U U49A A52U C70U was tested, and the “self-cleavage kobs at 10000 uM GlcN6P” value was < 1e-05 s⁻¹.
